This is one part of the list.
What was measured:
Assay in all cases: glycan array binding signal (z-score within array); higher = stronger binding
Details in all cases: glycan notation: IUPAC condensed, linker removed
Fuc(a1-2)Gal = target: Fuc(a1-2)Gal
In short: (§1)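 Arrays were curated from the Consortium for Functional Glycomics database, 3228 in total, and kept only where the protein sequence was available. Binding is expressed as a within-array Z-score. This score was averaged across arrays of the same protein sequence at different concentrations or buffers and across linkers, and negative values can be read as non-binding.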

Fuc(a1-2)Gal(b1-3)GalNAc = target: Fuc(a1-2)Gal(b1-3)GalNAc
In short: as §1

[1] = target: Fuc(a1-2)Gal(b1-3)GalNAc(a1-3)[Fuc(a1-2)]Gal(b1-4)Glc
In short: as §1

[2] = target: Fuc(a1-2)Gal(b1-3)GalNAc(a1-3)[Fuc(a1-2)]Gal(b1-4)GlcNAc
In short: as §1

[3] = target: Fuc(a1-2)Gal(b1-3)GalNAc(b1-3)Gal
In short: as §1

[4] = target: Fuc(a1-2)Gal(b1-3)GalNAc(b1-3)Gal(a1-4)Gal(b1-4)Glc
In short: as §1

[5] = target: Fuc(a1-2)Gal(b1-3)GalNAc(b1-4)[Neu5Ac(a2-3)]Gal(b1-4)Glc
In short: as §1

Fuc(a1-2)Gal(b1-3)GlcNAc = target: Fuc(a1-2)Gal(b1-3)GlcNAc
In short: as §1

[6] = target: Fuc(a1-2)Gal(b1-3)GlcNAc(b1-2)Man(a1-3)[Fuc(a1-2)Gal(b1-3)GlcNAc(b1-2)Man(a1-6)]Man(b1-4)GlcNAc(b1-4)GlcNAc
In short: as §1

[7] = target: Fuc(a1-2)Gal(b1-3)GlcNAc(b1-2)Man(a1-3)[Fuc(a1-2)Gal(b1-3)GlcNAc(b1-2)Man(a1-6)]Man(b1-4)GlcNAc(b1-4)[Fuc(a1-6)]GlcNAc
In short: as §1

[8] = target: Fuc(a1-2)Gal(b1-3)GlcNAc(b1-3)Gal(b1-4)Glc
In short: as §1

[9] = target: Fuc(a1-2)Gal(b1-3)GlcNAc(b1-3)GalNAc
In short: as §1

[10] = target: Fuc(a1-2)Gal(b1-3)GlcNAc(b1-3)[Fuc(a1-2)Gal(b1-3)GlcNAc(b1-6)]GalNAc
In short: as §1

[11] = target: Fuc(a1-2)Gal(b1-3)GlcNAc(b1-3)[Gal(b1-4)GlcNAc(b1-6)]Gal(b1-4)Glc
In short: as §1

[12] = target: Fuc(a1-2)Gal(b1-3)GlcNAc(b1-3)[Neu5Ac(a2-6)Gal(b1-4)GlcNAc(b1-6)]Gal(b1-4)Glc
In short: as §1

[13] = target: Fuc(a1-2)Gal(b1-3)GlcNAc6S
In short: as §1

[14] = target: Fuc(a1-2)Gal(b1-3)[Fuc(a1-4)]GlcNAc
In short: as §1

[15] = target: Fuc(a1-2)Gal(b1-3)[Fuc(a1-4)]GlcNAc(b1-2)Man(a1-3)[Fuc(a1-2)Gal(b1-3)[Fuc(a1-4)]GlcNAc(b1-2)Man(a1-3)]Man(b1-4)GlcNAc(b1-4)GlcNAc
In short: as §1

[16] = target: Fuc(a1-2)Gal(b1-3)[Fuc(a1-4)]GlcNAc(b1-2)Man(a1-3)[Fuc(a1-2)Gal(b1-3)[Fuc(a1-4)]GlcNAc(b1-2)Man(a1-6)]Man(b1-4)GlcNAc(b1-4)[Fuc(a1-6)]GlcNAc(b1-4)[Fuc(a1-6)]GlcNAc
In short: as §1

[17] = target: Fuc(a1-2)Gal(b1-3)[Fuc(a1-4)]GlcNAc(b1-3)[Fuc(a1-3)[Gal(b1-4)]GlcNAc(b1-6)]Gal(b1-4)Glc
In short: as §1

[18] = target: Fuc(a1-2)Gal(b1-3)[Fuc(a1-4)]GlcNAc(b1-3)[Gal(b1-4)GlcNAc(b1-6)]Gal(b1-4)Glc
In short: as §1

[19] = target: Fuc(a1-2)Gal(b1-4)Fuc(a1-3)]GlcNAc(b1-2)Man(a1-3)[Fuc(a1-2)Gal(b1-4)[Fuc(a1-3)]GlcNAc(b1-2)Man(a1-6)]Man(b1-4)GlcNAc(b1-4)GlcNAc
In short: as §1

Fuc(a1-2)Gal(b1-4)Glc = target: Fuc(a1-2)Gal(b1-4)Glc
In short: as §1

Fuc(a1-2)Gal(b1-4)Glc6S = target: Fuc(a1-2)Gal(b1-4)Glc6S
In short: as §1

Fuc(a1-2)Gal(b1-4)GlcNAc = target: Fuc(a1-2)Gal(b1-4)GlcNAc
In short: as §1

[20] = target: Fuc(a1-2)Gal(b1-4)GlcNAc(b1-2)Man
In short: as §1

[21] = target: Fuc(a1-2)Gal(b1-4)GlcNAc(b1-2)Man(a1-3)[Fuc(a1-2)Gal(b1-4)GlcNAc(b1-2)Man(a1-6)]Man(b1-4)GlcNAc(b1-4)GlcNAc
In short: as §1

[22] = target: Fuc(a1-2)Gal(b1-4)GlcNAc(b1-2)Man(a1-3)[Fuc(a1-2)Gal(b1-4)GlcNAc(b1-2)Man(a1-6)]Man(b1-4)GlcNAc(b1-4)[Fuc(a1-6)]GlcNAc
In short: as §1

[23] = target: Fuc(a1-2)Gal(b1-4)GlcNAc(b1-2)[Fuc(a1-2)Gal(b1-4)GlcNAc(b1-4)]Man(a1-3)[Fuc(a1-2)Gal(b1-4)GlcNAc(b1-2)Man(a1-6)]Man(b1-4)GlcNAc(b1-4)GlcNAc
In short: as §1

[24] = target: Fuc(a1-2)Gal(b1-4)GlcNAc(b1-3)Gal(b1-4)GlcNAc
In short: as §1

[25] = target: Fuc(a1-2)Gal(b1-4)GlcNAc(b1-3)Gal(b1-4)GlcNAc(b1-2)Man(a1-3)[Fuc(a1-2)Gal(b1-4)GlcNAc(b1-3)Gal(b1-4)GlcNAc(b1-2)Man(a1-6)]Man(b1-4)GlcNAc(b1-4)GlcNAc
In short: as §1

[26] = target: Fuc(a1-2)Gal(b1-4)GlcNAc(b1-3)Gal(b1-4)GlcNAc(b1-3)Gal(b1-4)GlcNAc
In short: as §1

[27] = target: Fuc(a1-2)Gal(b1-4)GlcNAc(b1-3)GalNAc
In short: as §1

[28] = target: Fuc(a1-2)Gal(b1-4)GlcNAc(b1-3)[Fuc(a1-2)Gal(b1-4)GlcNAc(b1-6)]GalNAc
In short: as §1

[29] = target: Fuc(a1-2)Gal(b1-4)GlcNAc(b1-3)[Fuc(a1-3)[Gal(b1-4)]GlcNAc(b1-6)]Gal(b1-4)Glc
In short: as §1

[30] = target: Fuc(a1-2)Gal(b1-4)GlcNAc(b1-6)GalNAc
In short: as §1

[31] = target: Fuc(a1-2)Gal(b1-4)GlcNAc6S
In short: as §1

[32] = target: Fuc(a1-2)Gal(b1-4)[Fuc(a1-3)]GlcNAc
In short: as §1

[33] = target: Fuc(a1-2)Gal(b1-4)[Fuc(a1-3)]GlcNAc(b1-2)Man(a1-3)[Fuc(a1-2)Gal(b1-4)[Fuc(a1-3)]GlcNAc(b1-2)Man(a1-6)]Man(b1-4)GlcNAc(b1-4)[Fuc(a1-6)]GlcNAc
In short: as §1

[34] = target: Fuc(a1-2)Gal(b1-4)[Fuc(a1-3)]GlcNAc(b1-2)[Fuc(a1-2)Gal(b1-4)[Fuc(a1-3)]GlcNAc(b1-4)]Man(a1-3)[Fuc(a1-2)Gal(b1-4)[Fuc(a1-3)]GlcNAc(b1-2)Man(a1-6)]Man(b1-4)GlcNAc(b1-4)GlcNAc
In short: as §1

[35] = target: Fuc(a1-2)Gal(b1-4)[Fuc(a1-3)]GlcNAc(b1-3)Gal(b1-4)[Fuc(a1-3)]GlcNAc
In short: as §1

[36] = target: Fuc(a1-2)Gal(b1-4)[Fuc(a1-3)]GlcNAc(b1-3)Gal(b1-4)[Fuc(a1-3)]GlcNAc(b1-3)Gal(b1-4)[Fuc(a1-3)]GlcNAc
In short: as §1

[37] = target: Fuc(a1-2)Gal(b1-4)[Fuc(a1-3)]GlcNAc(b1-3)GalNAc
In short: as §1

[38] = target: Fuc(a1-2)Gal(b1-4)[Fuc(a1-3)]GlcNAc(b1-3)[Neu5Ac(a2-6)Gal(b1-4)GlcNAc(b1-6)]Gal(b1-4)Glc
In short: as §1

[39] = target: Fuc(a1-2)Gal3S(b1-4)GlcNAc
In short: as §1

B1: BC2LB (Burholderia cenocepacia), B4EH85_BURCJ (protein)
chain: MGSSHHHHHHSSGENLYFQGHMSQPFTHDDLYALLQLAGNDATAVQANGDQAVLDRMRQFMTAQLVEKLPQYDVFVDIATIPYSFDVGSWQNKVKTDAAGEVVACTVTWAGAPGVLPGAAAKFGVGAVVNYFSKATPH
Fuc(a1-2)Gal
  glycan array binding signal (z-score): -0.021
Fuc(a1-2)Gal(b1-3)GalNAc
  glycan array binding signal (z-score): -0.215
[1]
  glycan array binding signal (z-score): -0.176
[2]
  glycan array binding signal (z-score): -0.327
[3]
  glycan array binding signal (z-score): -0.141
[4]
  glycan array binding signal (z-score): -0.185
[5]
  glycan array binding signal (z-score): -0.296
Fuc(a1-2)Gal(b1-3)GlcNAc
  glycan array binding signal (z-score): -0.241
[6]
  glycan array binding signal (z-score): 0.171
[7]
  glycan array binding signal (z-score): -0.135
[8]
  glycan array binding signal (z-score): -0.248
[9]
  glycan array binding signal (z-score): -0.33
[10]
  glycan array binding signal (z-score): -0.166
[11]
  glycan array binding signal (z-score): -0.289
[12]
  glycan array binding signal (z-score): -0.361
[13]
  glycan array binding signal (z-score): 0.992
[14]
  glycan array binding signal (z-score): -0.105
[15]
  glycan array binding signal (z-score): 0.293
[16]
  glycan array binding signal (z-score): -0.167
[17]
  glycan array binding signal (z-score): -0.191
[18]
  glycan array binding signal (z-score): -0.251
[19]
  glycan array binding signal (z-score): -0.182
Fuc(a1-2)Gal(b1-4)Glc
  glycan array binding signal (z-score): 0.158
Fuc(a1-2)Gal(b1-4)Glc6S
  glycan array binding signal (z-score): -0.091
Fuc(a1-2)Gal(b1-4)GlcNAc
  glycan array binding signal (z-score): -0.164
[20]
  glycan array binding signal (z-score): 0.079
[21]
  glycan array binding signal (z-score): -0.054
[22]
  glycan array binding signal (z-score): 0.06
[23]
  glycan array binding signal (z-score): -0.151
[24]
  glycan array binding signal (z-score): -0.309
[25]
  glycan array binding signal (z-score): 0.245
[26]
  glycan array binding signal (z-score): -0.238
[27]
  glycan array binding signal (z-score): -0.217
[28]
  glycan array binding signal (z-score): 0.721
[29]
  glycan array binding signal (z-score): -0.283
[30]
  glycan array binding signal (z-score): 0.724
[31]
  glycan array binding signal (z-score): -0.033
[32]
  glycan array binding signal (z-score): -0.23
[33]
  glycan array binding signal (z-score): 0.191
[34]
  glycan array binding signal (z-score): 0.315
[35]
  glycan array binding signal (z-score): -0.226
[36]
  glycan array binding signal (z-score): -0.243
[37]
  glycan array binding signal (z-score): -0.25
[38]
  glycan array binding signal (z-score): -0.194
[39]
  glycan array binding signal (z-score): -0.298

Reference: the supplement of paper PMC8728848
